The values below come from publication PMC8294944 (Journal of agricultural and food chemistry, 2020).

Where two headings read alike, the source gives them in different places.

Usually EC50 stands for the midpoint of the concentration-response curve.

The target of assay [1] is T1, ERβ (MDA-MB-231/β41 breast carcinoma cells) (Homo sapiens, UniProt Q92731). As to the kind of experiment: ERβ-ERE-luciferase induction assay in MDA-MB-231/β41 cells. The format is cell-based.
For assay [2], the target named is T1, ERβ (MDA-MB-231/β41 breast carcinoma cells). The note with it: ERE-luciferase, MDA-MB-231/β41 cells; mean ± SEM; cited from earlier work.
Where [3] appears, read: ERE-luciferase, MDA-MB-231/β41 cells, mean ± SEM.

T1 sequence (Q92731 whole entry): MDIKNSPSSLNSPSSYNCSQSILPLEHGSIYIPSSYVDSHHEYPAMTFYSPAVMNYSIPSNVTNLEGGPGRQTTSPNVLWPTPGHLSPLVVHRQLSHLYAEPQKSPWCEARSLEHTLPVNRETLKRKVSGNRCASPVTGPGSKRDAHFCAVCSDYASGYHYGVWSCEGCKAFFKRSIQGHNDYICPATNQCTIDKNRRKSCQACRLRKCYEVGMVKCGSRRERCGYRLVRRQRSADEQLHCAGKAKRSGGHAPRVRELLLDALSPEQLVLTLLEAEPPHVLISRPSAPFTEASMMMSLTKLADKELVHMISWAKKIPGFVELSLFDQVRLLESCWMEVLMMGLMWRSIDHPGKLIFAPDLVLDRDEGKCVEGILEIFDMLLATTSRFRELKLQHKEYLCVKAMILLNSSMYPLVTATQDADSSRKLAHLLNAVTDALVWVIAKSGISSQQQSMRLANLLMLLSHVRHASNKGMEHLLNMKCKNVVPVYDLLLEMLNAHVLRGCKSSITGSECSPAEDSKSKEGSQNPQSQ

In turn, `CC(C)=CCc1c(O)cc(O)c2c(=O)c(-c3ccc(O)cc3)coc12` [8-PG, 8-Prenylgenistein] came in with an EC50 in assay [1] of 300 ± 3 nM. Moreover, the Emax in assay [1] (MDA-MB-231, read-out: ERβ Maximum efficacy) is 74 ± 7%.

Turning to `CC(C)=CCc1c(O)cc(O)c2c1O[C@H](c1ccc(O)cc1)CC2=O` [8-PN, 8-Prenylnaringenin], the “ERβ Maximum efficacy” value in assay [2] is listed as 87 ± 9.0^4.

Turning to `CC(C)=CCc1c(O)cc(O)c2c(=O)c(O)c(-c3ccc(O)cc3)oc12` [DMI, Desmethylicaritin], in assay [1] (setting [3]), the “ERβ Maximum efficacy” value is listed as 90 ± 11.

On to `O=C1C[C@@H](c2ccc(O)cc2)Oc2cc(O)cc(O)c21` [NRG, naringenin], for which the half-maximal effective concentration (EC50) in assay [1] stood at 100 ± 40 nM. Further, in assay [1] (setting [3]), the “ERβ Maximum efficacy” value stood at 99 ± 4.0.

As to Dehydrogenistein [DGN], the “ERβ Maximum efficacy” value in assay [1] (setting [3]) turned out to be 114 ± 12. Moreover, the half-maximal effective concentration (EC50) in assay [1] (read-out: ERβ EC50 (compounds), ERE-luciferase, MDA-MB-231/β41 cells, mean ± SEM) was found to be 20 ± 10 nM.
